Here are results for one molecule from patent US20220049236A1 (YEDA RESEARCH AND DEVELOPMENT, published 2022).

For test [1], the target named is T1, LOX catalytic domain (catalytic domain of human LOX, 169-417) (human, UniProt P28300 170-417).
T1 construct: Expressed from pET28 in E. coli BL21 SHuffle, purified on HisTrap and labelled through its His tag for MST
T1 sequence: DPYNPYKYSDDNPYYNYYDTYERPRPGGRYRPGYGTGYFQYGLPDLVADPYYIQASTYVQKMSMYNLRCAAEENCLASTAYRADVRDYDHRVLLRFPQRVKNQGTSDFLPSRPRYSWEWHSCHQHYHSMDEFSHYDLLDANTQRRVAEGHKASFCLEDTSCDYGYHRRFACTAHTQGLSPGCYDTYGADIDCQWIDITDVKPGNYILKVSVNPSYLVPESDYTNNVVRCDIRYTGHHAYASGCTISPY
Briefly: microscale thermophoresis, labelled LOX with rising concentration of Fc-LPD (Fnorm rises from about 850 to about 860 between 10^0 and 10^4 nM).

Test [2] concerns the target T2, Heat shock cognate 71 kDa protein (human, UniProt P11142).
T2 construct: also called HSPA8
Briefly: IP from HDF supernatant, LFQ mass spectrometry; ratio against the glycosylation mutant. How it is done:
(§1) Fc-LPD was coated on magnetic protein G beads (GE) according to manufacturer's instructions. The coated beads were incubated with concentrated supernatant from 10 cm² dish culture of HDF cells overnight on 4° C. Pellet beads were obtained by centrifuge (˜500 g for 5 min 4° C.) and the beads were washed with PBS of volume at least 5 times the initial beads volume. Then the beads pellet was placed in a collection column, which was inserted in an eppendorf tube containing 10 ul of 1M Tris-HCl pH 8. 90 ul of elution buffer (Thermo-Scientific) was added to the beads and after 5 min of incubation elution was performed by centrifuge. The last step was repeated four times.
(§2) Mass-spectrometry for identification gel bands from I.P of Fc-LPD The samples were eluted with 5% SDS and subjected to tryptic digestion using an S-trap. The resulting peptides were analyzed using nanoflow liquid chromatography (nanoAcquity) coupled to high resolution, high mass accuracy mass spectrometry (Q Exactive HFX). Each sample was processed with MaxQuant v1.6.0.16. The data was searched with the Andromeda search engine against the human proteome database appended with common lab protein contaminants and the following modifications: Carbamidomethylation of C as a fixed modification and oxidation of M and protein N-term acetylation as variable ones. The LFQ intensities (label free quantification) were calculated and used for further calculations using Perseus v1.6.07. Decoy hits were filtered out, as well as proteins that were identified on the basis of a modified peptide only. The LFQ intensities were log transformed and only proteins that had at least 2 valid values in at least one experimental group were kept. GO annotations were added.
(§3) The Fc-LPD has three glycosylation sites, in order to investigate the importance of glycosylation a new construct Fc-LPD-N346, 362, 409Q was created. These two proteins including the Fc (as control) were used to clarify the interactions of LPD with ECM proteins in the supernatant of HDF cells, as in Example 3. For this purpose, HDF cells were cultured in 60 cm² dishes for 3 days in 10 ml serum-free and phenol red-free medium. The medium was collected and concentrated using 10 kDa cutoff vivaspin filters and incubated with Fc, Fc-LPD and Fc-LPD-N346, 362, 409Q, which were pre-incubated in magnetic protein G beads.

Test [3] deals with T3, Filaggrin-2 (human, UniProt Q5D862 1-2391, limits assumed).
T3 construct: also called FLG2
The description is as above. How it is done: as §1, §2, §3

For test [4], the target named is T4, Heat shock protein HSP 90-beta (human, UniProt P08238).
T4 construct: also called HSP90AB1
Described as above. The procedure: as §1, §2, §3

Test [5] has as its target T5, Heat shock protein HSP 90-alpha (human, UniProt P07900 2-732).
T5 construct: also called HSP90AA1
The test is described as above. How it is done: as §1, §2, §3

The target in test [6] is T6, Heat shock 70 kDa protein 1A/B (human, UniProt P0DMV9).
T6 construct: also called Heat shock 70 kDa protein 1B; HSPA1B
Described as above. How it is done:
as §1, §2, §3

Test [7] has as its target T7, Hornerin (human, UniProt Q86YZ3 1-2850, limits assumed).
T7 construct: also called HRNR
The description is as above. The procedure: as §1, §2, §3

Test [8] concerns the target T2, Heat shock cognate 71 kDa protein. Briefly: IP from HDF supernatant, LFQ mass spectrometry; ratio against Fc control.
Test [9] deals with T3, Filaggrin-2. The description is as above.
T3 sequence (Q5D862 whole entry): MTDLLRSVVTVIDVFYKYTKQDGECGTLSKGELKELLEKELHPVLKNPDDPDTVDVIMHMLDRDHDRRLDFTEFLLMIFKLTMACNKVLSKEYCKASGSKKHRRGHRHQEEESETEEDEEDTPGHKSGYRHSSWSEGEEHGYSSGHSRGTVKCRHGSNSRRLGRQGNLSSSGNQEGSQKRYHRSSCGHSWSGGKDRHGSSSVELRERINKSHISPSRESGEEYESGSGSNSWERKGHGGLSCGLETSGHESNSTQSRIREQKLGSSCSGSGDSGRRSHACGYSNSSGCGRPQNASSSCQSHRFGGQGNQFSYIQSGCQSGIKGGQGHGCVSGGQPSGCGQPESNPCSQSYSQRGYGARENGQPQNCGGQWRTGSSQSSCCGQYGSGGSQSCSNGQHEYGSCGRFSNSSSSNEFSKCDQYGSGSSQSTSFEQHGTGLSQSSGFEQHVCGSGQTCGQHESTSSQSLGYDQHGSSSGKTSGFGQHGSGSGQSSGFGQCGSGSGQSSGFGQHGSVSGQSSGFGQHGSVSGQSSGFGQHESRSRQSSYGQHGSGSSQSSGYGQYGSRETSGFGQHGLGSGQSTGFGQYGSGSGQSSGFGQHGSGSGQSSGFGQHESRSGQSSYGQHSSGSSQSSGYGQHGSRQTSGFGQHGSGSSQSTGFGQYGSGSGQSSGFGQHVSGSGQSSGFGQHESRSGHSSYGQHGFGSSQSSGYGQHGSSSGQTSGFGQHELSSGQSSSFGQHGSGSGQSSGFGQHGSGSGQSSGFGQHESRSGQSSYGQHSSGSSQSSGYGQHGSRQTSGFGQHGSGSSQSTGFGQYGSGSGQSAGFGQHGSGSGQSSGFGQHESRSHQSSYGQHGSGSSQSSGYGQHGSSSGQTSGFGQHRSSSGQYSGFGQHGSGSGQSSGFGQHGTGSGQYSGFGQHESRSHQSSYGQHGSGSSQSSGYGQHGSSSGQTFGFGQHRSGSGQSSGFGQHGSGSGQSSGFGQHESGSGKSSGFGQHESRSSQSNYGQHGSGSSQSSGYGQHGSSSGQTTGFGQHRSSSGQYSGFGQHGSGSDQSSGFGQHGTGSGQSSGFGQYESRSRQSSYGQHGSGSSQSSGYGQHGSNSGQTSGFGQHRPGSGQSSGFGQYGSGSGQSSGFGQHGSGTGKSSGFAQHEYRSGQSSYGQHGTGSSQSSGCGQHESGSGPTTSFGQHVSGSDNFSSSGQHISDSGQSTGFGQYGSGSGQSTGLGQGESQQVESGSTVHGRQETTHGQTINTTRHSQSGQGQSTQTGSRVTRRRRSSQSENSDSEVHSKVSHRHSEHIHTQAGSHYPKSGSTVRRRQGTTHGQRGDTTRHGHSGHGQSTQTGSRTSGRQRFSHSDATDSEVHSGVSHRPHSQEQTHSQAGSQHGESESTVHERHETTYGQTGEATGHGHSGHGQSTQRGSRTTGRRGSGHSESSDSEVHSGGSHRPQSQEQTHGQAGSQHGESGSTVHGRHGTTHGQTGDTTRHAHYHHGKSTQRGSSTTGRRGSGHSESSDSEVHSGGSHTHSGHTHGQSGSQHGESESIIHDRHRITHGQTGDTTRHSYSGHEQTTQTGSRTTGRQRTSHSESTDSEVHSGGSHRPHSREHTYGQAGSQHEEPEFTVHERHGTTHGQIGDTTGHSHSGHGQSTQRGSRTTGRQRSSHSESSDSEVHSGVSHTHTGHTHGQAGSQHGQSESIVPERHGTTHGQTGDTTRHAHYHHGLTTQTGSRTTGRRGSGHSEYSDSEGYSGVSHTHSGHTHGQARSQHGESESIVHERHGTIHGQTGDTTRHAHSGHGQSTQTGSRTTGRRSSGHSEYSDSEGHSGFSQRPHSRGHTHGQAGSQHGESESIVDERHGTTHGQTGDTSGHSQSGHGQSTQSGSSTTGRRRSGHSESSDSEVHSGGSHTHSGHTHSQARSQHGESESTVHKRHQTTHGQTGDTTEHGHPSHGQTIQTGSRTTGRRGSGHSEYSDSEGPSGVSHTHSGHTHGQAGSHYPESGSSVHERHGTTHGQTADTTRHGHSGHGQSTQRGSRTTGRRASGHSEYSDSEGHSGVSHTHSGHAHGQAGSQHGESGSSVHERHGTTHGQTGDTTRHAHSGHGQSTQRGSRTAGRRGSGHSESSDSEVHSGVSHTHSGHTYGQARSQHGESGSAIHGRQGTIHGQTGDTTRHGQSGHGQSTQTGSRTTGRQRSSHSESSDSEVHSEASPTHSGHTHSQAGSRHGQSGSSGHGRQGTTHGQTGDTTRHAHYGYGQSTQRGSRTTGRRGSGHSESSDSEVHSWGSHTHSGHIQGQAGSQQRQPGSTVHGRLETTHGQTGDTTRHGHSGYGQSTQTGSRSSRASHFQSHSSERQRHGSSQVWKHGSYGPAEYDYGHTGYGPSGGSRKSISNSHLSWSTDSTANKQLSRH
The target of test [10] is T4, Heat shock protein HSP 90-beta. The test is described as above.
T4 sequence (P08238 2-724 limits assumed): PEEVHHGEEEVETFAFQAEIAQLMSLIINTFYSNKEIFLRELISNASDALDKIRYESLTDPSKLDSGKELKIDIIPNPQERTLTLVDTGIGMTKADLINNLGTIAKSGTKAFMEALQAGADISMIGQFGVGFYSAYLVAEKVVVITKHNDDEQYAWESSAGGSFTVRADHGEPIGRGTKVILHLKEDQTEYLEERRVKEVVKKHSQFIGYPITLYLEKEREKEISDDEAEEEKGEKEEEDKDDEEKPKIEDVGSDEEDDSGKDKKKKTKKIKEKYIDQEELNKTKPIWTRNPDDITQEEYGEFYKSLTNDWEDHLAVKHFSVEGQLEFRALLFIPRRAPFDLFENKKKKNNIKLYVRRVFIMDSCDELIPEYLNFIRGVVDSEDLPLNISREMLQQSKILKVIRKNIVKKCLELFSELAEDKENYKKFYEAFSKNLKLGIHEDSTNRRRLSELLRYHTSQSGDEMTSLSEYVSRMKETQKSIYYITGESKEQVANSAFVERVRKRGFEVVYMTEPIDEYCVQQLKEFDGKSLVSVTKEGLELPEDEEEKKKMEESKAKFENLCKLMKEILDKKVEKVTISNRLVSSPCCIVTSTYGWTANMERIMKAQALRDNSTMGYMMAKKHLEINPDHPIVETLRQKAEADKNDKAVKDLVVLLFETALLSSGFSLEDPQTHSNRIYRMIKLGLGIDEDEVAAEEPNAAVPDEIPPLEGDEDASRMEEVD
Test [11] has as its target T5, Heat shock protein HSP 90-alpha. Described as above.
The target of test [12] is T6, Heat shock 70 kDa protein 1A/B. Described as above.
T6 sequence (P0DMV9 2-641 limits assumed): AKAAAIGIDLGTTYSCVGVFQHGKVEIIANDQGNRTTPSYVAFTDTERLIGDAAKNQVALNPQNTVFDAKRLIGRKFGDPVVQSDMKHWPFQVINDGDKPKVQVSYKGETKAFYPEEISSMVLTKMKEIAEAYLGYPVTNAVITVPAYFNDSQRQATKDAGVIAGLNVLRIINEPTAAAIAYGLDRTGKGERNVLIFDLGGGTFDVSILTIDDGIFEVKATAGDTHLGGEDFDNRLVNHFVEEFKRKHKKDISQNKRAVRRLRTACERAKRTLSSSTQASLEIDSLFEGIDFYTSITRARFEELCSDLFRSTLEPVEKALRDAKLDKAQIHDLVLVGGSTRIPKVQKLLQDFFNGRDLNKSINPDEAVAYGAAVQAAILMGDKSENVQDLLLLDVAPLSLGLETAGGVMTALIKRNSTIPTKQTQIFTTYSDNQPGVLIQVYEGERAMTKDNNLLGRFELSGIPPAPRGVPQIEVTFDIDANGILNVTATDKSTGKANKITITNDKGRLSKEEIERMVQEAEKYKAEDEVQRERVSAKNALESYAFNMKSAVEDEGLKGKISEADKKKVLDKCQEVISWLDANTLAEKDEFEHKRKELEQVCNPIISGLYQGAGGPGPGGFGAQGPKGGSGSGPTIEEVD
In test [13] the target is T7, Hornerin. The test is described as above.
Test [14] deals with T8, 60 kDa heat shock protein, mitochondrial (human, UniProt P10809 27-573, limits assumed).
T8 construct: also called HSPD1; HSP60
T8 sequence (P10809 27-573 limits assumed): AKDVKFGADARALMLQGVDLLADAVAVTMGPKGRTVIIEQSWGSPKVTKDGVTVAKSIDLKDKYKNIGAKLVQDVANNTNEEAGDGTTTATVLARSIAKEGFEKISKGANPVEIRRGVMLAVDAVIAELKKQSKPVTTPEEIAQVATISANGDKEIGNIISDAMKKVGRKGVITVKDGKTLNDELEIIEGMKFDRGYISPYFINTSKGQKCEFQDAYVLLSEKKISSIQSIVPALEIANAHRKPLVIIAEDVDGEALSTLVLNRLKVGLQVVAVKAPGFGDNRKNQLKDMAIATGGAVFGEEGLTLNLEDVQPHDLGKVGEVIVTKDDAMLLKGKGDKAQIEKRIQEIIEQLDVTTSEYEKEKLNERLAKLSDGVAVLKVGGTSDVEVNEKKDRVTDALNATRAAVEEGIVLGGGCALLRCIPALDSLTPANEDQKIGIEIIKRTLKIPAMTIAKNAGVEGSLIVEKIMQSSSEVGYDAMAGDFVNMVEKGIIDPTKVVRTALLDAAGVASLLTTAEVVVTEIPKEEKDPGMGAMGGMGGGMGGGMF
The description is as above.

By Kd is commonly meant the free concentration of one partner at which half of the binding sites on the other are occupied at equilibrium, for simple one-to-one binding. High values mean lower affinity, low ones higher affinity.

T2 sequence (P11142 2-646 limits assumed): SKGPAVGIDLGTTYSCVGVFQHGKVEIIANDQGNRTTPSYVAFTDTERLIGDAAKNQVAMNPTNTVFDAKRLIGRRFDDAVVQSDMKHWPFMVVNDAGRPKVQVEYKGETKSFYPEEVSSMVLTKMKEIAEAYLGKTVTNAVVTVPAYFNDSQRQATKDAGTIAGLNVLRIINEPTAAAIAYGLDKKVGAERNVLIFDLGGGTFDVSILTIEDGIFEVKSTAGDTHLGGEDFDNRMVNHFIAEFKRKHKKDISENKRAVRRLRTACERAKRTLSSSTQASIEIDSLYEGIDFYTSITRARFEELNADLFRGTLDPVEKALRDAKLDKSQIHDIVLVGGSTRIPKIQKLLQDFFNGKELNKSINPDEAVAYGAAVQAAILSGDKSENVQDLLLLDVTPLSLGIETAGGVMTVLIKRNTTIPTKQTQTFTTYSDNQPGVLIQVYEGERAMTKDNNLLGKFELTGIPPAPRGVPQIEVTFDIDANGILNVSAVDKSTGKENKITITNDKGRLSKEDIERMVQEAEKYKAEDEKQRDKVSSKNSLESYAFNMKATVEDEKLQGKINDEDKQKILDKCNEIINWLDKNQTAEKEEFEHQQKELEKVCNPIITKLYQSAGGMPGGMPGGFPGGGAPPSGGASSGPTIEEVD

B1: Fc-LPD (lysyl oxidase prodomain fused to Fc antibody fragment) (Fc fusion)
chain: [human IgG1 Fc and a few adjoining residues cut from this listing]ASGAGSTTENLYFQGGSAPPAAGQQQPPREPPAAPGAWRQQIQWENNGQVFSLLSLGSQYQPQRRRDPGAAVPGAANASAQQPRTPILLIRDNRTAAARTRTAGSSGVTAGRPRPTARHWFQAGYSTSRAREAGASRAENQTAPGEVPALSNLRPPSRVDGMVGD
modifications: N-glycans detected by MS at N346, N362 and N409 (N81, N97, N144 of LOX) and at one further site in the Fc region
notes: Expressed in HEK293-6E cells from pYD5 and purified on protein A; expressed as a dimer of about 95 kDa; The preparation is a mixture of glycoforms (45 kDa and 60 kDa bands); also called anti-LOX
In the case of B1, the equilibrium dissociation constant (Kd) in [1] amounted to 32.4 nM. In addition, the “Ratio Fc-LPD:Fc-LPDN346, 409, 456Q” value stood at 1.4 in [2]; 55.7 in [3]; 0.6 in test [4]; 2.9 in [5]; 0.4 in test [6]; 6.7 in [7]. The “Ratio Fc-LPD:Fc” value was 1.2 in test [8]; 1 in [9]; 1.2 in test [10]; 0.7 in test [11]; 14.1 in test [12]; 1.3 in test [13]. Also, the “Ratio Fc-LPD:Fc” value in [14] was found to be 1.8.
